# Hit rate of the full screen: of about 270,000 compounds, about 5,800 (2.1%) were called active. The shares of active, inactive and inconclusive entries below differ from those in the screen. Calls come from the whole dose curve; as a rule, active = well fitted inhibition curve with a large enough effect; inconclusive = small, poorly fitted or top-dose-only effect; inactive = flat fitted curve, though single readings scatter. Potencies beside an inconclusive call are fits to weak or partial responses and may not hold up.
# Biological target: Microtubule-associated protein tau (Homo sapiens) (UniProt P10636)
# Sequence of UniProt P10636 (P10636 whole entry, looked up): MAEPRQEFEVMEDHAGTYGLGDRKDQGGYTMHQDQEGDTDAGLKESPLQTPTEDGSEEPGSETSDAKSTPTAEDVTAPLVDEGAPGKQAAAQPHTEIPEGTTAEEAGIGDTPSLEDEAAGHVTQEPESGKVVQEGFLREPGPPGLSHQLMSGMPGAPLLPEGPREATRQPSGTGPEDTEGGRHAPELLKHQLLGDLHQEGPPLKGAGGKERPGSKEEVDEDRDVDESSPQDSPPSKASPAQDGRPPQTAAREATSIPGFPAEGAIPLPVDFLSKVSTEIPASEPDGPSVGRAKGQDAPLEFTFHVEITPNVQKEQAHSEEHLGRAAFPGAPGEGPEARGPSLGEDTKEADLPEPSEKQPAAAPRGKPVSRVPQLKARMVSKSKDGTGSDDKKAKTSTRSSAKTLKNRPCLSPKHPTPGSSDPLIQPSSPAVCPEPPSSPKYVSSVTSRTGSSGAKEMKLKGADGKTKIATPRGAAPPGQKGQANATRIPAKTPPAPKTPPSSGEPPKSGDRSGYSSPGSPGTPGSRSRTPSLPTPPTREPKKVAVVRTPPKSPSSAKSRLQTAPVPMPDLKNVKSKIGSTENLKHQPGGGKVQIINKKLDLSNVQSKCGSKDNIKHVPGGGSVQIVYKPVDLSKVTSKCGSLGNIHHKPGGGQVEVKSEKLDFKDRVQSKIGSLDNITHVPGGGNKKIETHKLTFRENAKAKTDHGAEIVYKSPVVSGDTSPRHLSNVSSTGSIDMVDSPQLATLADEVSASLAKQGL
# Experiment: qHTS for Inhibitors of Tau Fibril Formation, Thioflavin T Binding; note: nearly all actives have a fitted effect of over 55% in size
# Conditions: recombinant tau K18 P301L (four-repeat tau fragment), heparin-induced fibrillization, ThT fluorescence; series mostly up to 57.4 µM; activity, negative = inhibition: at the top concentration
# Procedure, shortened: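 In this qHTS, human K18 P301L tau is incubated with compound and heparin for 6 hr at 37 C, and Thioflavin T fluorescence then reports fibril load.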
# % is set by controls: 0 for no effect and ±100 for the full control effect; potency is the fitted concentration of half-maximal effect; tags give direction and shape of the fitted curve.
SMILES,Potency,"activity, negative = inhibition"
Cc1cccc(NC(=O)CSc2cn(CC(=O)N3CCC(C)CC3)c3ccccc23)c1C,"inconclusive: 15.8 µM [inhibitor, single point]",–
O=c1n(Cc2ccccc2)nc2n1-c1ccccc1OC2,–,inactive: -6.91%
COCCNC(=S)N/N=C(\C)c1ccccc1F,–,inactive: 5.15%
CC(C)c1cnc2c(c1SCc1ccc([N+](=O)[O-])cc1)c(=O)n(C)c(=O)n2C,"inconclusive: 15.8 µM [inhibitor, partial curve]",–
CN1CCCN(Cc2nc(-c3cccc(C(F)(F)F)c3)no2)CC1,–,inactive: -12.7%
C=CCn1c(N)c(C(=O)NCCC2=CCCCC2)sc1=S,"inconclusive: 25.1 µM [inhibitor, partial curve, poor fit]",–
CCOc1ccc(NS(=O)(=O)c2ccc3[nH]cc(C(=O)N4CCCC4)c(=O)c3c2)cc1,–,inactive: -4.83%
O=C(CSc1nnc(-c2ccc(Cl)cc2)n1Cc1ccco1)c1cccs1,"inconclusive: 28.2 µM [inhibitor, partial curve, poor fit]",–
C/C(=C\CNc1ncnc2c1ncn2[C@@H]1O[C@H](CO)[C@@H](O)[C@H]1O)CO,–,inactive: -1.76%
O=C1C(=Cc2ccco2)C(=O)c2ccccc21,active: 12.6 µM,–
CNCC(O)Cn1c(C(F)(F)F)nc2ccccc21 (stereo unspecified),–,inactive: -1.68%
O=C(CCCn1cnc([N+](=O)[O-])n1)Nc1ccc(Cl)c(Cl)c1,"inconclusive: 25.1 µM [inhibitor, partial curve]",–
CC1(C)C=Cc2cc3ccc(=O)oc3cc2O1,"inconclusive: 44.7 µM [inhibitor, single point]",–
CCOc1ccc(-c2nc(-c3ccncc3)no2)cc1OCC,"inconclusive: 5.62 µM [inhibitor, partial curve]",–
CCN(c1ccccc1)S(=O)(=O)c1ccc(NC(=O)c2cc(=O)c3c(C)cc(C)cc3o2)cc1,–,inactive: 2.45%
O=C1CCCC(=O)C1CS(=O)(=O)c1ccccc1,active: 17.8 µM,–
O=S(=O)(Nn1c(O)c(C=C2N=c3ccccc3=N2)sc1=S)c1ccccc1,active: 11.2 µM,–
CCN(CC)S(=O)(=O)c1ccc(Cl)c(NC(=O)COC(=O)c2ccc([N+](=O)[O-])o2)c1,"inconclusive: 20 µM [inhibitor, single point]",–
CN(C)Cc1cc(O)c(CN(C)C)cc1O,active: 7.08 µM,–
COc1ccc(C(=O)NC(=S)Nc2ccc(CN3CCOCC3)cc2)cc1,"inconclusive: 39.8 µM [inhibitor, single point]",–
Cc1noc(Cn2c(=O)c3cc4c(cc3n(CC(=O)Nc3ccc(C(C)C)cc3)c2=O)OCO4)n1,"inconclusive: 10 µM [activator, partial curve, poor fit]",–
O=C(C/C(=N\NC(=O)c1ccccc1Br)C(F)(F)F)c1cccs1,"inconclusive: 20 µM [inhibitor, partial curve]",–
CCc1ccccc1N1CC(c2nc3ccccc3n2CCCCOc2ccccc2OC)CC1=O (stereo unspecified),"inconclusive: 22.4 µM [inhibitor, partial curve, poor fit]",–

SMILES,Potency,"activity, negative = inhibition"
CCOC(=O)c1ccc(-n2c(N)c(C(=O)NCC3CCCO3)sc2=S)cc1 (stereo unspecified),–,inactive: -14.8%
Cc1cc(C(=O)CSc2nnc(-c3ccncc3)n2-c2ccccc2)c(C)n1C,"inconclusive: 1.26 µM [inhibitor, partial curve]",–
c1ccc(-c2nc(-c3cccs3)c(NC3CCCCC3)o2)cc1,–,inactive: 0.698%
Cc1cc(C=C2C(=O)c3ccccc3C2=O)c(C)n1-c1ccc(Cl)cc1,"inconclusive: 17.8 µM [inhibitor, partial curve]",–
COc1ccccc1NC(=O)c1ccc(NC(=O)COC(=O)C2CCCO2)cc1 (stereo unspecified),"inconclusive: 28.2 µM [inhibitor, single point]",–
COc1cnc(-c2ccccn2)nc1NC(C)C,"inconclusive: 31.6 µM [inhibitor, single point]",–
O=S(=O)(NCC(c1ccco1)S(=O)(=O)c1ccccc1)c1cc(F)ccc1F (stereo unspecified),–,inactive: 0.703%
Cc1cccc(-c2noc(-c3cccnc3NCc3ccccc3Cl)n2)c1,–,inactive: -7.59%
COc1cccc(N2C(=O)CC(N3CCC(C(N)=O)(N4CCCCC4)CC3)C2=O)c1 (stereo unspecified),–,inactive: 5.55%
Fc1ccc(Nc2nc(SCc3ccc(Cl)cc3)nc3ccccc23)cc1,"inconclusive: 25.1 µM [activator, partial curve, poor fit]",–
CCSC1=C(C#N)C2(CCCC2)C(C#N)=C(N)N1,–,inactive: -0.256%
Cc1cc(C)c(C2C(C#N)=C(N)Oc3n[nH]c(C)c32)cc1CN1CCOCC1 (stereo unspecified),"inconclusive: 39.8 µM [inhibitor, single point]",–
COc1ccccc1Nc1nc(-c2c(C)nc3ncccn23)cs1,"inconclusive: 15.8 µM [inhibitor, partial curve]",–
COc1ccc(S(=O)(=O)N(Cc2nc(-c3ccccc3)no2)C2CCCCC2)cc1,–,inactive: -2.08%
COc1cc(OC)c(NC(=O)/C=C/C(=O)O)cc1Cl,"inconclusive: 39.8 µM [inhibitor, single point]",–
O=C(NN=C1CCN(Cc2ccccc2)CC1)C(O)c1ccccc1 (stereo unspecified),–,inactive: -5.81%
O=C1NC(=S)SC1=C1CCCCCC1,"inconclusive: 22.4 µM [inhibitor, single point]",–
C(/CCc1ccccc1)=N\Nc1nc2ccccc2[nH]1,"inconclusive: 11.2 µM [inhibitor, partial curve]",–
CC1(C)CC(=O)C(C(C2=C(O)CC(C)(C)CC2=O)c2cccc(O)c2)C(=O)C1 (stereo unspecified),"inconclusive: 7.08 µM [inhibitor, partial curve]",–
O=C(NCCn1cc(SCc2ccc(C(F)(F)F)cc2)c2ccccc21)c1ccccc1F,"inconclusive: 39.8 µM [inhibitor, single point]",–
Cn1cccc1/C=C1\SC(=S)N(NC(=O)c2ccc(Cl)cc2)C1=O,"inconclusive: 3.16 µM [inhibitor, full curve]",–
O=C(N/N=C\c1ccc(Br)o1)C1COc2ccccc2O1 (stereo unspecified),"inconclusive: 15.8 µM [inhibitor, partial curve]",–
CC1=CC(C)(C)n2c(O)c(N=NC(N)=S)c3cccc1c32,"inconclusive: 3.55 µM [inhibitor, partial curve]",–

# Source: PubChem BioAssay AID1460 (National Center for Advancing Translational Sciences (NCATS), 2008)
